# Experimental data published in the supplement of paper PMC3334620.
# In all, about 33,000 sequences were measured (“E-score (-0.5 to 0.5)”: median about -0.04, highest 2% from about 0.36 on). The list shows a part of the results.
# Biological target: T1, Hmlalpha2 (UniProt P0CY09)
# T1 sequence: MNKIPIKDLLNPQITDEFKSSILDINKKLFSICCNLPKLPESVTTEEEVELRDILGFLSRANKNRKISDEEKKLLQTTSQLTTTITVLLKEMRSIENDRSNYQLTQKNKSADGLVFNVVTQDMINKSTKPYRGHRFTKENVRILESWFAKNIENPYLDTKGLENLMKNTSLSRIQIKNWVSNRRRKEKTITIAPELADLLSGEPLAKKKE
# Experiment: PBM E-score (8-mer binding enrichment) (E-score (-0.5 to 0.5)); higher = stronger / more preferred TF binding; most listed sequences are background and not binding sites
# Settings: protein concentration: 200 nM; construct: GST-full length
# Summary of the method: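 Yeast transcription factors, full-length or as DNA-binding domains, were expressed with a GST tag using PURExpress in vitro transcription/translation. At about 100-200 nM they were applied to universal all-10-mer Agilent arrays, double-stranded by primer extension on fresh or once-stripped slides. Fluorescent anti-GST detected bound protein, and masliner normalised the scans. E-scores for ungapped eight-base words, pooled with reverse complements, came from the Universal PBM Analysis Suite.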
row,Sequence,PBM E-score
1,CAATGGAG,-0.138
2,TACCCGCA,0.0649
3,CAAGAAAA,0.0858
4,AGTCACCG,-0.182
5,AGAAACCC,0.0172
6,AGCAGCCA,-0.0603
7,TAATGTAA,0.431
8,GACTTGAA,-0.231
9,CCCTGAAG,-0.314
10,CCCTGGGA,-0.252
11,CAACTACA,0.316
12,GCCAGCCA,-0.239
13,ATGTACCA,0.22
14,CGGTGGAC,-0.136
15,CCTGGAGA,-0.152
16,GACATGGA,0.263
17,CCTCCTCC,-0.124
18,CACTCGAG,-0.178
19,GATCGATC,-0.143
20,GATGTGAC,-0.0742
21,CCTTGTAC,0.327
22,CCCCATAC,-0.252
23,AGTTTTGG,0.0681
24,AGCTCAGG,-0.134

row,Sequence,PBM E-score
1,GTGACCTA,-0.0194
2,CGTGGTAG,-0.0742
3,AAATCCGA,0.0207
4,CGCTGATC,-0.177
5,GCGGTCTA,0.241
6,CCAAGGTC,-0.204
7,ACGCAGCT,0.273
8,AGCAATTG,0.0454
9,GGAACCAC,-0.093
10,CATCCAGG,-0.233
11,CACTATAA,0.0678
12,ATATACTC,0.0152
13,AAGCCGGC,-0.151
14,AGCGTATA,0.104
15,AGGGCATC,-0.221
16,CATGCGTA,0.358
17,TGCACGCA,0.037
18,CCAAGAAA,-0.0334
19,AATACTAA,0.134
20,GGTAGGAA,-0.0956
21,ATCAAAAT,0.0538
22,AACGTTCA,0.085
23,TAACCGAA,-0.0258
24,ATCTGATC,0.0656

row,Sequence,PBM E-score
1,CCGTCGCC,-0.338
2,ACGGACTA,-0.0398
3,AAACAGAC,0.116
4,GGTGAATA,-0.0571
5,CGCTTAAG,-0.0159
6,GCGTACTA,0.208
7,AAGACGAT,0.0721
8,ATGAGCAA,0.0378
9,AGCGCGCC,-0.274
10,CACTAACC,-0.0939
11,AGGACAGC,-0.143
12,GACACCCC,-0.202
13,CGAAGTGA,-0.0369
14,ACAAGTGA,0.144
15,GCACGAGC,-0.168
16,ACGTTCGG,-0.313
17,AGAAACAT,0.294
18,GCATAGAC,-0.0786
19,AGGGACCA,-0.213
20,GCTCCGCC,-0.322
21,ACTGTTAG,-0.13
22,AGTCTACC,-0.249
23,AGAAACTC,-0.0164
24,CCGGTCAC,-0.194

row,Sequence,PBM E-score
1,CTCAACTC,-0.13
2,ACCATCGG,-0.239
3,AGCGCACT,-0.225
4,GCTACTCA,-0.0384
5,ATACAGGA,0.0227
6,AACGATCT,-0.0798
7,ACCGCGTA,0.353
8,CCAACGGA,-0.242
9,AAATCATG,0.194
10,CCGTAAAG,0.0757
11,GGCGCCCA,-0.178
12,CTGGTGGA,-0.228
13,CTTTTCAA,0.0683
14,GGAGCCCC,-0.314
15,CAAAGAGC,-0.142
16,ATTCAGCA,0.051
17,GAGGTTAC,0.0883
18,CGTAGACA,0.108
19,TGCCCCAA,-0.104
20,CCTTGTGC,0.0153
21,CGCCGAGC,-0.112
22,GAAAATAC,-0.0131
